# Experimental data taken from a collection of fitness landscapes (doi:10.1038/s41467-024-54723-y).
# Whole data set: some 18,000 sequences, median “TetR repression strength (sort-seq, GFP reporter)” near 0.23, cut for the highest 2% near 0.68. The list shows a part of the results.
# Target: TetR (class B, Tn10) (UniProt P04483)
# Experiment: TetR repression strength (sort-seq, GFP reporter) (relative to tetO2 = 1); higher = stronger repression
# Details: E. coli
# How it was run: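 E. coli SIG10-MAX carried a low-copy plasmid library with eight randomized operator positions between a constitutive promoter and sfGFP, with TetR constitutively expressed. Cells grew 5 h at 37 °C in LB with 50 µg/mL chloramphenicol, then 10^6 cells were FACS-sorted into 13 fluorescence bins, each Illumina-sequenced. Repression strength is the top bin index plus one minus the read-weighted mean bin, divided by the wild-type operator value. Three independent transformations; variants with ≥30 reads in all replicates and CV ≤0.5 were averaged.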
# Chain of UniProt P04483 (P04483 whole entry): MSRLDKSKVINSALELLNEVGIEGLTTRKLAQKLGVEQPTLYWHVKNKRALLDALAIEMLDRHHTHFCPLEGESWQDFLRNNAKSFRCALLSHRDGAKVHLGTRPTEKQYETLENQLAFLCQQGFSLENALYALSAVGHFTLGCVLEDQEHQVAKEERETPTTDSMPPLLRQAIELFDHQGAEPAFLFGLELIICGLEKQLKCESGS
row,Sequence,TetR repression strength
1,TCCCCGCGAGTTGTGGAGA,0.162
2,TCCCTCAGAGTTGGCGAGA,0.104
3,TCCCTCTTAGTAAAAGAGA,0.342
4,TCCCTGAGAGTGAGTGAGA,0.0407
5,TCCCTTAAAGTTAATGAGA,0.194
6,TCCCTGGGAGTGAGGGAGA,0.183
7,TCCCTAATAGTACTTGAGA,0.287
8,TCCCTGCTAGTTCTCGAGA,0.337
9,TCCCAGGGAGTTATCGAGA,0.145
10,TCCCTATAAGTAGAAGAGA,0.236
11,TCCCAGGCAGTGGTAGAGA,0.276
12,TCCCTCGAAGTCTAAGAGA,0.171
13,TCCCGGAGAGTGATAGAGA,0.308
14,TCCCTGAAAGTGAGTGAGA,0.249
15,TCCCTCCAAGTATCGGAGA,0.274
16,TCCCCAGAAGTTCGCGAGA,0.192
17,TCCCTGTGAGTGCTCGAGA,1.14
18,TCCCGACGAGTATGGGAGA,0.148
19,TCCCGTTAAGTGTATGAGA,0.404
20,TCCCAGGCAGTGTCGGAGA,0.225
21,TCCCTGAGAGTAGTGGAGA,0.12
22,TCCCAGATAGTACATGAGA,0.298
23,TCCCTAACAGTGGGGGAGA,0.308
24,TCCCTTGCAGTGCTAGAGA,0.498
25,TCCCCATGAGTTTGCGAGA,0.317
26,TCCCGGTGAGTGCGGGAGA,0.191

row,Sequence,TetR repression strength
1,TCCCGACAAGTACCGGAGA,0.272
2,TCCCTGTGAGTCAGGGAGA,0.207
3,TCCCTTACAGTGTGGGAGA,0.204
4,TCCCGCACAGTGGGTGAGA,0.241
5,TCCCTGGTAGTTGTAGAGA,0.0495
6,TCCCTTGAAGTTGGAGAGA,0.261
7,TCCCGGCTAGTTGACGAGA,0.0531
8,TCCCGCCCAGTGCTGGAGA,0.159
9,TCCCCGTGAGTAGGTGAGA,0.138
10,TCCCTGAGAGTGGGGGAGA,0.176
11,TCCCTTTAAGTGAGAGAGA,0.474
12,TCCCGCGTAGTGAGGGAGA,0.0936
13,TCCCTGATAGTGGAGGAGA,0.06
14,TCCCACTCAGTTTGTGAGA,0.175
15,TCCCCGCTAGTCCGCGAGA,0.14
16,TCCCACGAAGTGACGGAGA,0.182
17,TCCCCGCCAGTGATCGAGA,0.441
18,TCCCGGCCAGTGACAGAGA,0.437
19,TCCCGCGTAGTAACGGAGA,0.0703
20,TCCCCAACAGTGTATGAGA,0.16
21,TCCCAGCGAGTTGACGAGA,0.197
22,TCCCTCGTAGTAGTGGAGA,0.358
23,TCCCAATAAGTGTAAGAGA,0.21
24,TCCCCTTCAGTTTATGAGA,0.311
25,TCCCCGAGAGTGGCAGAGA,0.284
26,TCCCTAGTAGTCTATGAGA,0.142

row,Sequence,TetR repression strength
1,TCCCTTTCAGTACCTGAGA,0.315
2,TCCCCTCAAGTTATTGAGA,0.471
3,TCCCGGTTAGTGGACGAGA,0.165
4,TCCCAGGTAGTCTCAGAGA,0.253
5,TCCCATCTAGTGGCAGAGA,0.547
6,TCCCGAGGAGTTATTGAGA,0.242
7,TCCCGTGCAGTTAAGGAGA,0.323
8,TCCCTCTCAGTCGAGGAGA,0.138
9,TCCCCGCAAGTGGGAGAGA,0.263
10,TCCCAGGCAGTAACGGAGA,0.256
11,TCCCGTGGAGTGTCAGAGA,0.174
12,TCCCCGGTAGTGGAGGAGA,0.207
13,TCCCGCGGAGTGCGCGAGA,0.16
14,TCCCGGACAGTGTAGGAGA,0.295
15,TCCCCATGAGTCTCCGAGA,0.603
16,TCCCTGATAGTCAAGGAGA,0.426
17,TCCCCGTTAGTCGTGGAGA,0.212
18,TCCCCTGAAGTGTGGGAGA,0.196
19,TCCCCGTTAGTTGGAGAGA,0.45
20,TCCCGTGTAGTGGGAGAGA,0.239
21,TCCCGGATAGTTCGCGAGA,0.305
22,TCCCGTGAAGTATGCGAGA,0.122
23,TCCCCAAAAGTGAGCGAGA,0.305
24,TCCCGAAAAGTGGACGAGA,0.162
25,TCCCGTGGAGTTTCGGAGA,0.203
26,TCCCTGGGAGTGGCGGAGA,0.183

row,Sequence,TetR repression strength
1,TCCCATCCAGTGCAGGAGA,0.0404
2,TCCCGTATAGTTCATGAGA,0.254
3,TCCCGTCCAGTACTAGAGA,0.168
4,TCCCTGGCAGTCATGGAGA,0.219
5,TCCCGGCTAGTAGATGAGA,0.156
6,TCCCTATTAGTATCAGAGA,0.582
7,TCCCTGCGAGTGTACGAGA,0.0723
8,TCCCATGAAGTGTAGGAGA,0.114
9,TCCCGGTAAGTATAGGAGA,0.323
10,TCCCCTGCAGTGGAGGAGA,0.128
11,TCCCATCTAGTTGGCGAGA,0.829
12,TCCCTTAGAGTTGCCGAGA,0.152
13,TCCCCCGCAGTGTATGAGA,0.254
14,TCCCCAAGAGTATAGGAGA,0.0765
15,TCCCAATTAGTCCGAGAGA,0.35
16,TCCCTCATAGTTGATGAGA,0.247
17,TCCCGGGTAGTTCAAGAGA,0.155
18,TCCCGGAAAGTCAGTGAGA,0.0589
19,TCCCAAGGAGTGCAGGAGA,0.0841
20,TCCCGTCGAGTTCCGGAGA,0.977
21,TCCCCCAAAGTCTGGGAGA,0.13
22,TCCCTGACAGTTGGAGAGA,0.485
23,TCCCGGTCAGTGTGGGAGA,0.297
24,TCCCTAACAGTAGTGGAGA,0.2
